Reference: publication PMC4336329 (PLoS ONE, 2015)
Hit rate of the full screen: of about 310,000 compounds, about 2,200 (0.71%) showed an effect of 50% or more. Effects have a minus sign here. This is one part of the list.

target: human ether-à-go-go-related gene (hERG) potassium channel (human, UniProt Q12809); experiment: primary screen, population patch clamp on CHO cells stably expressing hERG
Sequence (Q12809 whole entry, looked up): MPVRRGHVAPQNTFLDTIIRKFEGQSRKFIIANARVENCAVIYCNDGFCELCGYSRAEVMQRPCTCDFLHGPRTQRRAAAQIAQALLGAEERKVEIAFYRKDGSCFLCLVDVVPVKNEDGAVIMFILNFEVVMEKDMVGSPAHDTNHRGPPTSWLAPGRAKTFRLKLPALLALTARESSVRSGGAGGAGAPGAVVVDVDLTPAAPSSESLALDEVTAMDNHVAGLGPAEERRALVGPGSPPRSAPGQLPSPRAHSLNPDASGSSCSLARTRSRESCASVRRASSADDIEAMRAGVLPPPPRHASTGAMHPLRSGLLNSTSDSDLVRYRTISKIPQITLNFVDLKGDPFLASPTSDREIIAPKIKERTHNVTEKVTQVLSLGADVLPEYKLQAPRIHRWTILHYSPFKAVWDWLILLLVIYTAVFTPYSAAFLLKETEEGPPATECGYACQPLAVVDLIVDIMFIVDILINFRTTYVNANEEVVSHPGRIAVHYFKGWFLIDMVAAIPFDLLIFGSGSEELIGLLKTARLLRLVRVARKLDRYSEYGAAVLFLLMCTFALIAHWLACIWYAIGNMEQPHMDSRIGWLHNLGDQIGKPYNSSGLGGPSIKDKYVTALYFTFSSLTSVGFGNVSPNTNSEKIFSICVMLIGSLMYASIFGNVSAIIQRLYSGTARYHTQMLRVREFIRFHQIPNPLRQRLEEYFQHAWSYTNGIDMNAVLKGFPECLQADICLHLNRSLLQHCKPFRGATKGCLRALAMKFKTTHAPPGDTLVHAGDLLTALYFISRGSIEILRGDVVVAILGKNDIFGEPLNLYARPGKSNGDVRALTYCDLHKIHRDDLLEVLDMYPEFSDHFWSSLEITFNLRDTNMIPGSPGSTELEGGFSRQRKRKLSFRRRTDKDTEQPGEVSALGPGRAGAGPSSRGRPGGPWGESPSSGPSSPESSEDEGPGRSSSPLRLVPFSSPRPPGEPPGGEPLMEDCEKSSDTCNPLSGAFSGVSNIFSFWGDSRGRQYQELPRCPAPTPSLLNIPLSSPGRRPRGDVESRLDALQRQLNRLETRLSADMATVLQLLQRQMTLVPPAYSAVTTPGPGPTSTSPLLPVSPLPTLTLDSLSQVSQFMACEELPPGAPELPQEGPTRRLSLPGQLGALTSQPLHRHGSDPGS

SMILES | hERG current change (%, negative = inhibition) at 1uM [%]
CCC(C)N(C(=O)Cn1nc(C)c([N+](=O)[O-])c1C)C1CCS(=O)(=O)C1 (centres unmarked) | 9.48
COc1ccc(CCNC(=O)c2ccco2)cc1 | 11.1
Cc1ccccc1OCc1nnc(SCC(=O)Nc2ccc(N3CCOCC3)c(Cl)c2)n1C | 6.62
CCOc1ccc(N2C(=O)CC(N3CCOCC3)C2=O)cc1 (centres unmarked) | -2.76
CCCCNC(=O)c1ccc(Cn2c(=S)[nH]c3c([nH]c4ccc(OC)cc43)c2=O)cc1 | -18.6
COc1cc(C(=O)NNC(=O)COc2ccc(C)cc2)ccc1OCC(=O)N1CCOCC1 | 6.65
Cc1nnc(NC2=NCCCCC2)o1 | 13.1
CN(C)S(=O)(=O)c1cccc(NC(=O)/C=C/c2ccc(S(=O)(=O)N3CCOCC3)cc2)c1 | 12.6
O/N=C(\c1ccc2c(c1)OCCO2)C1CCCCC1 | 14.8
CCOc1cc(NC(=O)c2cccs2)c(OCC)cc1NC(=O)c1ccco1 | 17.8
COc1ccc2nc(N3CCCCC3)c(/C=C3\SC(=S)NC3=O)cc2c1 | 14.2
COc1cccc(OC)c1C(=O)NC(=S)NCc1ccco1 | 14.7
Cn1cccc1Cc1nnc(SCC(N)=O)n1CCc1ccccc1 | 3.62
CN(Cc1c(F)cccc1Cl)C(=O)c1cnc2ccccc2n1 | 11.1
CCc1ccc(C(=O)CSc2nc3ccccc3c(=O)[nH]2)cc1 | -9.07
CC(=O)CSc1nc(N)c(C#N)c(-c2cccs2)c1C#N | 11.2
CN(C)CCNC(=O)C(=O)C1C(=O)Nc2ccccc21 (centres unmarked) | 6.47
CCO.Cc1cc(C)n(CCc2nc(-c3ccc(-c4ccccc4)cc3)cs2)n1 | 2.73
CCC(CC)C(=O)NCCCCc1ccccc1 | 8.32
CCOC(=O)c1ccc(NC(=S)N2CCN(Cc3ccccc3)CC2)cc1 | 6.04
CN1CCN(c2ccc(NC(=O)c3ccc(Oc4ccccc4)cc3)cc2)CC1 | 11.7
S=c1[nH]nc(COc2ccc(Cl)cc2)n1-c1ccccc1 | 12

SMILES | hERG current change (%, negative = inhibition) at 1uM [%]
CC1CCCC(C)N1CCCNC(=O)CCn1c(=O)c2cccn2c2cccnc21 (centres unmarked) | 15
COc1ccc(C(=O)CSc2nnc(NC(=O)C3CC(=O)N(c4ccccc4C)C3)s2)cc1 (centres unmarked) | 14.3
CCN1C(=O)N[C@@H](c2ccccc2)[C@H](C(C)=O)[C@H]1C | 14.5
CC(C)N(Cc1cnn(C)c1)C(=O)C1CCC(=O)N(CCc2cccc(F)c2)C1 (centres unmarked) | 12.7
O=C(c1nn2c(C(F)(F)F)cc(-c3cccs3)nc2c1Br)N1CCCc2ccccc21 | 15.4
CCCOc1ccc(-c2c(=O)n(O)c3ccccc3[n+]2[O-])cc1 | 15
O=C1c2ccccc2C(=O)N1CN(C(=O)COc1ccc(Cl)cc1Cl)c1cccc(F)c1 | 12.3
CCc1c(C(C)S(=O)(=O)c2ccc(C)cc2)[nH]c(=O)n1-c1ccc(C)cc1 (centres unmarked) | 16
COc1ccc(-c2c(NC(=O)c3ccco3)oc3ccccc3c2=O)cc1 | 16.8
CN(C)CCn1nnc2c(=O)oc3ccccc3c21.Cl | 2.55
CCCC1(c2ccccc2)NC(=O)N(CC(=O)Nc2cc(C)on2)C1=O (centres unmarked) | -0.602
COc1ccc(CN2CCNC(=O)C2CC(=O)N(C)Cc2ccno2)c(F)c1 (centres unmarked) | 14.6
COc1cc(CCC(=O)NCC2CCCO2)cc(OC)c1OC (centres unmarked) | 9.77
OCCC#Cc1ccc(CN2CCN(Cc3ccsc3)C(CCO)C2)cc1 (centres unmarked) | 10.5
CN1CCc2c(sc3c2c(=O)n(-c2ccccc2)c2n[nH]c(=S)n32)C1 | -11
O=C(CCN1C(=O)C2CCCCC2C1=O)Nc1nc2ccc(F)cc2s1 (centres unmarked) | -1.32
CC(C)(C)c1cc(NC(=O)Nc2ccccc2OC(F)(F)F)no1 | 14.8
CCOC(=O)N1CCN(c2ccc(C(C)=O)cc2F)CC1C (centres unmarked) | 17.7
CCCc1ccc(S(=O)(=O)N/N=C\c2ccc3c(c2)OCO3)cc1 | -3.43
CCOc1ccc(/C=N/NC2=NCCCCC2)cc1 | -19.3
COc1cc(OC)cc(C(=O)NC(C)CNc2ccc(Cl)cc2[N+](=O)[O-])c1 (centres unmarked) | 7.43
N#Cc1cccc(Cn2cc(C(F)(F)F)ccc2=O)c1 | -0.628
